Experimental data published in the supplement of paper PMC10126150.
Sequences with one replicate were seen in a single cluster, so their values are uncertain.

Test system: ATP
Test: switch fluorescence ratio, 500 uM ATP over buffer (Cy3 cluster intensity, sum of 5 cycles each) (fold (ratio)); higher = stronger signal-on switching upon ATP binding; sequences stand for … in TCGTCGGCAGCGTCAGATGTGTATAAGAGACAGTTTTTTTTTTTTTTTTTTTTTTTTT…TC
Details: aptamer strand: ATP DNA aptamer (quencher-CACCTGGGGGAGTATTGCGGAGGAAGG + anchor), 100 nM annealed; ATP concentration: 500 uM; one replicate
How it was run: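 Cy3-labelled switching-strand clusters on a modified Illumina MiSeq flow-cell were annealed to 100 nM quencher-labelled ATP aptamer and imaged first in selection buffer, then after 15 min with 500 uM ATP at 22 °C. NaOH stripping and re-annealing separated each of five buffer/ATP cycles, and clusters outside 100-1000 RFU were excluded. The fluorescence ratio sums target-cycle Cy3 intensity over buffer-cycle Cy3 intensity per cluster and averages it per switch-domain sequence.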
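Note: ATP exposure 15 min at 22 °C before imaging.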

Which switch fluorescence ratio does the source give for ATGCAGGATC here?
The switch fluorescence ratio was 1.03.

How did the switch fluorescence ratio turn out when ATGCATAAGC was run?
Its switch fluorescence ratio is 1.06.

ATGCCATATG was tested. Which switch fluorescence ratio did it give?
Its switch fluorescence ratio is 0.991.

How did the switch fluorescence ratio turn out when ATGCCCCTGG was run?
Its switch fluorescence ratio is 1.07.

ATGCCCGTTT was tested. Which switch fluorescence ratio did it give?
Its switch fluorescence ratio is 0.974.

With ATGCCTAATT as the sequence, how does the switch fluorescence ratio read?
Its switch fluorescence ratio is 0.951.

ATGCCTTCTC was tested. Which switch fluorescence ratio did it give?
Its switch fluorescence ratio is 1.09.

ATGCGAATTA was tested. Which switch fluorescence ratio did it give?
Its switch fluorescence ratio is 1.

ATGCGACACG was tested. Which switch fluorescence ratio did it give?
Its switch fluorescence ratio is 1.01.

ATGCGAGCGT was tested. Which switch fluorescence ratio did it give?
The switch fluorescence ratio was 0.96.

ATGCGATCTG was tested. Which switch fluorescence ratio did it give?
Its switch fluorescence ratio is 0.987.

For ATGCGGAGGG, which switch fluorescence ratio is on record?
The switch fluorescence ratio was 1.01.

How did the switch fluorescence ratio turn out when ATGCGTACAC was run?
Its switch fluorescence ratio is 1.05.

With ATGCGTACTC as the sequence, how does the switch fluorescence ratio read?
The switch fluorescence ratio was 1.14.

Which switch fluorescence ratio does the source give for ATGCGTGGCC here?
The switch fluorescence ratio was 1.

Which switch fluorescence ratio does the source give for ATGCGTTGCA here?
Its switch fluorescence ratio is 0.987.

For ATGCTAAGTA, which switch fluorescence ratio is on record?
Its switch fluorescence ratio is 0.988.

How did the switch fluorescence ratio turn out when ATGCTAGTGC was run?
The switch fluorescence ratio was 1.03.

Which switch fluorescence ratio does the source give for ATGCTCAGTG here?
The switch fluorescence ratio was 1.04.

For ATGCTCATAA, which switch fluorescence ratio is on record?
The switch fluorescence ratio was 0.964.

For ATGCTTAACT, which switch fluorescence ratio is on record?
The switch fluorescence ratio was 0.991.

For ATGCTTCC, which switch fluorescence ratio is on record?
The switch fluorescence ratio was 2.12.

How did the switch fluorescence ratio turn out when ATGCTTTAAC was run?
Its switch fluorescence ratio is 1.02.

Which switch fluorescence ratio does the source give for ATGCTTTGGT here?
The switch fluorescence ratio was 1.02.

How did the switch fluorescence ratio turn out when ATGCTTTGTA was run?
The switch fluorescence ratio was 1.02.

How did the switch fluorescence ratio turn out when ATGGAAACGT was run?
The switch fluorescence ratio was 1.07.

With ATGGAAGTTG as the sequence, how does the switch fluorescence ratio read?
Its switch fluorescence ratio is 1.01.

For ATGGACGCTC, which switch fluorescence ratio is on record?
The switch fluorescence ratio was 1.08.

For ATGGACTTC, which switch fluorescence ratio is on record?
The switch fluorescence ratio was 1.01.

ATGGAGATC was tested. Which switch fluorescence ratio did it give?
The switch fluorescence ratio was 1.03.

For ATGGAGCCGG, which switch fluorescence ratio is on record?
Its switch fluorescence ratio is 1.09.

ATGGAGCG was tested. Which switch fluorescence ratio did it give?
The switch fluorescence ratio was 1.02.

ATGGAGGACA was tested. Which switch fluorescence ratio did it give?
The switch fluorescence ratio was 1.02.

With ATGGAGGATT as the sequence, how does the switch fluorescence ratio read?
Its switch fluorescence ratio is 1.04.

Which switch fluorescence ratio does the source give for ATGGAGTGTA here?
The switch fluorescence ratio was 0.997.

With ATGGAGTTAG as the sequence, how does the switch fluorescence ratio read?
Its switch fluorescence ratio is 0.949.

With ATGGATCGGC as the sequence, how does the switch fluorescence ratio read?
The switch fluorescence ratio was 0.982.

For ATGGATGTGT, which switch fluorescence ratio is on record?
Its switch fluorescence ratio is 1.05.

With ATGGATTTCT as the sequence, how does the switch fluorescence ratio read?
The switch fluorescence ratio was 0.991.

With ATGGCAATGC as the sequence, how does the switch fluorescence ratio read?
The switch fluorescence ratio was 5.04.

With ATGGCCAGC as the sequence, how does the switch fluorescence ratio read?
The switch fluorescence ratio was 0.881.

With ATGGCCCAAC as the sequence, how does the switch fluorescence ratio read?
Its switch fluorescence ratio is 1.03.

For ATGGCCGTCA, which switch fluorescence ratio is on record?
The switch fluorescence ratio was 1.

ATGGCGCCCC was tested. Which switch fluorescence ratio did it give?
Its switch fluorescence ratio is 1.17.

For ATGGCTCACC, which switch fluorescence ratio is on record?
Its switch fluorescence ratio is 0.971.

ATGGCTGGTC was tested. Which switch fluorescence ratio did it give?
The switch fluorescence ratio was 1.01.

Which switch fluorescence ratio does the source give for ATGGGAACT here?
The switch fluorescence ratio was 0.985.

How did the switch fluorescence ratio turn out when ATGGGAAGTG was run?
Its switch fluorescence ratio is 1.05.

ATGGGAGACG was tested. Which switch fluorescence ratio did it give?
Its switch fluorescence ratio is 1.09.

Which switch fluorescence ratio does the source give for ATGGGCGTCC here?
The switch fluorescence ratio was 0.945.

How did the switch fluorescence ratio turn out when ATGGGCTAAC was run?
Its switch fluorescence ratio is 1.03.

Which switch fluorescence ratio does the source give for ATGGGGCTGC here?
The switch fluorescence ratio was 1.04.

ATGGGGTCGT was tested. Which switch fluorescence ratio did it give?
Its switch fluorescence ratio is 0.954.

With ATGGGTGAAC as the sequence, how does the switch fluorescence ratio read?
Its switch fluorescence ratio is 1.06.

ATGGGTGGTC was tested. Which switch fluorescence ratio did it give?
The switch fluorescence ratio was 0.989.

Which switch fluorescence ratio does the source give for ATGGGTTAAC here?
Its switch fluorescence ratio is 1.05.

With ATGGGTTCCA as the sequence, how does the switch fluorescence ratio read?
The switch fluorescence ratio was 1.01.

ATGGGTTTCG was tested. Which switch fluorescence ratio did it give?
Its switch fluorescence ratio is 0.958.

Which switch fluorescence ratio does the source give for ATGGTAAACT here?
The switch fluorescence ratio was 1.06.

ATGGTATATG was tested. Which switch fluorescence ratio did it give?
The switch fluorescence ratio was 0.984.

With ATGGTATCTG as the sequence, how does the switch fluorescence ratio read?
The switch fluorescence ratio was 0.972.

ATGGTATTAT was tested. Which switch fluorescence ratio did it give?
Its switch fluorescence ratio is 1.01.

For ATGGTCAATC, which switch fluorescence ratio is on record?
The switch fluorescence ratio was 0.996.

ATGGTCTAAA was tested. Which switch fluorescence ratio did it give?
The switch fluorescence ratio was 1.03.

How did the switch fluorescence ratio turn out when ATGGTGGACC was run?
The switch fluorescence ratio was 1.05.

With ATGGTGGAGA as the sequence, how does the switch fluorescence ratio read?
Its switch fluorescence ratio is 0.982.

With ATGGTTCACG as the sequence, how does the switch fluorescence ratio read?
Its switch fluorescence ratio is 1.04.

Which switch fluorescence ratio does the source give for ATGGTTGAGT here?
The switch fluorescence ratio was 0.967.

Which switch fluorescence ratio does the source give for ATGGTTGCCA here?
Its switch fluorescence ratio is 0.976.

ATGGTTGCTA was tested. Which switch fluorescence ratio did it give?
The switch fluorescence ratio was 0.986.

ATGGTTTCG was tested. Which switch fluorescence ratio did it give?
The switch fluorescence ratio was 0.944.

For ATGTAAACCC, which switch fluorescence ratio is on record?
Its switch fluorescence ratio is 0.999.

How did the switch fluorescence ratio turn out when ATGTAAATAG was run?
Its switch fluorescence ratio is 1.04.

ATGTAATAAG was tested. Which switch fluorescence ratio did it give?
Its switch fluorescence ratio is 1.

Which switch fluorescence ratio does the source give for ATGTAATTAC here?
Its switch fluorescence ratio is 1.03.

ATGTAGCTTT was tested. Which switch fluorescence ratio did it give?
The switch fluorescence ratio was 1.03.

For ATGTAGGTA, which switch fluorescence ratio is on record?
Its switch fluorescence ratio is 0.989.

With ATGTATACCT as the sequence, how does the switch fluorescence ratio read?
Its switch fluorescence ratio is 1.19.

How did the switch fluorescence ratio turn out when ATGTATATTC was run?
Its switch fluorescence ratio is 1.01.

Which switch fluorescence ratio does the source give for ATGTATCTGT here?
The switch fluorescence ratio was 1.02.

ATGTATTACA was tested. Which switch fluorescence ratio did it give?
The switch fluorescence ratio was 1.03.

For ATGTATTGCC, which switch fluorescence ratio is on record?
The switch fluorescence ratio was 0.979.

With ATGTCAAATT as the sequence, how does the switch fluorescence ratio read?
Its switch fluorescence ratio is 0.964.

How did the switch fluorescence ratio turn out when ATGTCAACTC was run?
The switch fluorescence ratio was 1.

ATGTCATGG was tested. Which switch fluorescence ratio did it give?
The switch fluorescence ratio was 1.03.

For ATGTCCTGGG, which switch fluorescence ratio is on record?
The switch fluorescence ratio was 0.986.

With ATGTCCTTCA as the sequence, how does the switch fluorescence ratio read?
Its switch fluorescence ratio is 1.21.

How did the switch fluorescence ratio turn out when ATGTCGAACG was run?
The switch fluorescence ratio was 1.01.

With ATGTCGGAAG as the sequence, how does the switch fluorescence ratio read?
Its switch fluorescence ratio is 0.988.

For ATGTCTCAGA, which switch fluorescence ratio is on record?
The switch fluorescence ratio was 1.01.

Which switch fluorescence ratio does the source give for ATGTGACAGG here?
The switch fluorescence ratio was 0.996.

For ATGTGACGTC, which switch fluorescence ratio is on record?
The switch fluorescence ratio was 1.01.

For ATGTGATGGT, which switch fluorescence ratio is on record?
The switch fluorescence ratio was 0.995.

Which switch fluorescence ratio does the source give for ATGTGATGTT here?
The switch fluorescence ratio was 0.977.

Which switch fluorescence ratio does the source give for ATGTGCCGA here?
The switch fluorescence ratio was 1.12.

How did the switch fluorescence ratio turn out when ATGTGCGGTC was run?
The switch fluorescence ratio was 0.967.

How did the switch fluorescence ratio turn out when ATGTGCGTGG was run?
Its switch fluorescence ratio is 0.976.

Which switch fluorescence ratio does the source give for ATGTGGCTTT here?
The switch fluorescence ratio was 0.963.

Which switch fluorescence ratio does the source give for ATGTGGGCAG here?
Its switch fluorescence ratio is 1.01.

With ATGTGTATTC as the sequence, how does the switch fluorescence ratio read?
Its switch fluorescence ratio is 1.02.
